Experimental data from the supplement of paper PMC12217912.
Some of the results follow. The full chains were built here from the parent and the listed change. Inactive controls read about 0.05.

B1: TEV protease; numbered along this chain (parent)
chain: MGESLFKGPRDYNPISSSICHLTNESDGHTTSLYGIGFGPFIITNKHLFRRNNGTLVVQSLHGVFKVKDTTTLQQHLVDGRDMIIIRMPKDFPPFPQKLKFREPQREERICLVTTNFQTKSMSSMVSDTSCTFPSGDGIFWKHWIQTKDGQCGSPLVSTRDGFIVGIHSASNFTNTNNYFTSVPKNFMELLTNQEAQQWVSGWRLNADSVLWGGHKVFMVKPEEPFQPVKEATQL

Variants of: B1
Test: raw area under fraction-flipped curve 0-4 h after induction (AUC4h, not background-subtracted), DNA-recorder readout of cleavage of the substrate (dimensionless); higher = more cleavage of the substrate by the protease variant
Conditions: temperature: 34 °C; time window: 0-4 h after rhamnose induction
Protocol: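 In vivo DNA recorder in E. coli TOP10(DE3) ΔrhaA at 34 °C. Each TEVp single-site mutant (parent TEVp 0) is paired with a single-site variant of the 7-mer TEVs (canonical ENLYFQ|S). The substrate sits between flexible linkers in a Bxb1-sfGFP-TEVs-SsrA fusion, so cleavage stabilises Bxb1 and speeds flipping of a recombination array, read by NGS. The value is the raw area under the fraction-flipped curve over 0-4 h after rhamnose induction (AUC4h), with ≥20 reads per time point. It is not background-subtracted; inactive controls average about 0.047.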
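Note: Bxb1 expression induced with 0.2% (w/v) L-rhamnose at OD600 near 0.5, cultures sampled hourly, flipped fraction per protease–substrate barcode pair counted by paired-end Illumina sequencing.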

Row | Variant | area with substrate ENLYFAS | area with substrate ENLYFDS | area with substrate ENLYFIS | area with substrate ENLYFKS | area with substrate ENLYFMS | area with substrate ENLYFPS | area with substrate ENLYFTS | area with substrate ENLYFVS | area with substrate ENLYFYS | area with substrate ENLYFES | area with substrate ENLYFFS | area with substrate ENLYFHS | area with substrate ENLYFLS | area with substrate ENLYFCS | area with substrate ENLYFNS | area with substrate ENLYFGS | area with substrate ENLYFSS | area with substrate ENLYFWS | area with substrate ENLYFRS
1 | G213E | 0.0471 | 0.0519 | 0.0425 | 0.0719 | 0.0474 | 0.0571 | 0.06 | 0.0597 | 0.0549 | – | – | – | – | – | – | – | – | – | –
2 | Q227H | 0.0569 | – | 0.0623 | – | 0.0649 | – | 0.0632 | – | 0.0649 | 0.0691 | 0.068 | 0.0952 | 0.0505 | – | – | – | – | – | –
3 | I167M | 0.0731 | 0.0586 | 0.046 | 0.0573 | 0.0527 | – | 0.0572 | 0.0531 | – | – | 0.0449 | 0.0612 | – | 0.063 | 0.0574 | – | – | – | –
4 | H143E | 0.0568 | 0.0628 | 0.0447 | 0.0762 | 0.0636 | 0.0525 | 0.0573 | 0.0626 | 0.0482 | 0.0532 | 0.0634 | 0.0443 | – | 0.0578 | 0.056 | 0.0491 | 0.0581 | 0.0323 | –
5 | T55P | 0.0739 | – | 0.0644 | 0.0573 | 0.0735 | 0.0672 | 0.0768 | – | 0.0552 | 0.0624 | 0.065 | 0.0543 | 0.0634 | 0.0554 | – | 0.0631 | 0.057 | – | –
6 | T55W | 0.0783 | 0.0802 | 0.0606 | 0.0532 | 0.0632 | 0.0604 | – | – | 0.0517 | 0.0646 | 0.0802 | – | – | 0.0553 | 0.0914 | 0.0742 | – | 0.0539 | 0.0555
7 | V229N | 0.072 | – | 0.0508 | 0.0691 | 0.0767 | 0.0566 | 0.0576 | 0.0615 | 0.0413 | – | 0.0861 | – | – | 0.0632 | – | 0.0577 | 0.0695 | – | 0.0524
8 | S130A | 0.0571 | – | 0.0483 | – | 0.0584 | 0.0619 | 0.0649 | 0.0798 | 0.0515 | 0.0383 | 0.0645 | 0.0626 | 0.0529 | 0.0676 | – | – | 0.0633 | 0.0568 | –
9 | N206D | 0.0621 | 0.0462 | 0.0577 | – | 0.0763 | 0.0532 | 0.0654 | 0.0566 | 0.0252 | 0.0687 | 0.0665 | – | 0.0694 | 0.062 | 0.0757 | – | 0.0626 | 0.0531 | 0.0644
10 | V78H | 0.0487 | – | 0.0653 | – | – | 0.0554 | 0.0462 | – | 0.0499 | – | 0.0735 | – | – | – | 0.0566 | – | – | – | 0.0549
11 | F226L | 0.0583 | – | 0.0679 | – | 0.0774 | 0.0679 | 0.0644 | 0.0627 | – | 0.0625 | 0.0604 | 0.0368 | 0.0659 | 0.0469 | – | – | 0.0583 | – | 0.0319
12 | T181W | 0.0644 | – | 0.0584 | 0.0717 | 0.0303 | – | 0.0519 | 0.0517 | – | – | 0.0704 | 0.0525 | – | 0.06 | 0.006 | – | – | – | –
13 | V57H | 0.0632 | – | 0.0461 | 0.0657 | 0.071 | 0.0633 | – | – | – | 0.0704 | 0.0534 | – | – | 0.0627 | – | – | 0.0833 | – | –
14 | R50T | 0.0606 | 0.056 | 0.0555 | – | 0.0766 | – | 0.0593 | 0.0534 | 0.0658 | – | – | – | 0.0619 | – | 0.0603 | – | 0.062 | – | –
15 | W203Q | 0.0589 | – | 0.0505 | 0.0521 | – | 0.0523 | – | – | 0.0505 | 0.0534 | – | – | – | – | – | – | – | – | –
